The structures appear in SMILES notation. The whole screen tested about 310,000 compounds, of which about 14,000 (4.5%) showed an effect of 50% or more. The effect is printed as a negative number. The list shows a part of the results.
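Further: peak tail current of the secondary pulse compared with the same well before compound.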

The target of the test is human ether-à-go-go-related gene (hERG) potassium channel (human, UniProt Q12809). Briefly: primary screen, population patch clamp on CHO cells stably expressing hERG.
Sequence of human ether-à-go-go-related gene (hERG) potassium channel (Q12809 whole entry, looked up): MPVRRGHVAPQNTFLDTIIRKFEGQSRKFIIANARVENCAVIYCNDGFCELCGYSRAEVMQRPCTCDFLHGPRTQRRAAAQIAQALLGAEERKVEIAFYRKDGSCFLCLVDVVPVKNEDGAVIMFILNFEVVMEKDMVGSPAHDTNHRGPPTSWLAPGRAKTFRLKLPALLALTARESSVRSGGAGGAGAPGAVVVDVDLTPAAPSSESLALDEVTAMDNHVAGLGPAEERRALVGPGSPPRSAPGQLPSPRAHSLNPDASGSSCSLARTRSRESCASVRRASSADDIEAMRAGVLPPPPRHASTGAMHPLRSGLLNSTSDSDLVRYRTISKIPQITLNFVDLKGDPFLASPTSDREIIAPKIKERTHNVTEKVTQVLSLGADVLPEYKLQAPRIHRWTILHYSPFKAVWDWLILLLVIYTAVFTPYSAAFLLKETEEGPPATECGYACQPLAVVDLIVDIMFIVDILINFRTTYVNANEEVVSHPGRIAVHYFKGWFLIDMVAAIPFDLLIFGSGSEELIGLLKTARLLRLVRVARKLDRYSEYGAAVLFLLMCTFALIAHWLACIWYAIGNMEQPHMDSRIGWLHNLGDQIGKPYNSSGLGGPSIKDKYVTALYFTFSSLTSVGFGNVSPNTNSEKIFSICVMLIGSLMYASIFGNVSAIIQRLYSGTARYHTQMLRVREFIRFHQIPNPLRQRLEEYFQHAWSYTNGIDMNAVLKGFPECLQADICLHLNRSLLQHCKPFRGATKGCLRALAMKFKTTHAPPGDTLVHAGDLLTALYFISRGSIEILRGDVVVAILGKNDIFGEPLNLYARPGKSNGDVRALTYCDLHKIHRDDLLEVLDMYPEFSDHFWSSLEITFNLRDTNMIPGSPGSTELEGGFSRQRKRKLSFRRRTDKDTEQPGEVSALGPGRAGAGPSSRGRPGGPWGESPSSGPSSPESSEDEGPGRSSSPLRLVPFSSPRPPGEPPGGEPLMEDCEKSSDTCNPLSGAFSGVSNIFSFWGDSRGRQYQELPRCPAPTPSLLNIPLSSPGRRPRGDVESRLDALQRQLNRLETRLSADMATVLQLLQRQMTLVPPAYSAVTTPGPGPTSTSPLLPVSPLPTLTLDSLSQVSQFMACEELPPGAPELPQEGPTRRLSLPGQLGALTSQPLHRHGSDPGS
As for `CCOc1ccc(NC(=O)CN(C)C(=O)c2ccc(OCc3ccccc3)c(OC)c2)cc1OCC`, the “hERG current change (%, negative = inhibition) at 10uM” value is reported as -3.72%. On to `S=c1[nH]nc(-c2ccccn2)n1/N=C/c1ccc(Cl)cc1`, for which the “hERG current change (%, negative = inhibition) at 10uM” value amounted to 10.6%. The result for `CNc1ccc([N+](=O)[O-])cc1-c1nc2ccccc2[nH]c1=O` reads 20.2%. To `O=c1c2c3c(sc2n2cnnc2n1Cc1ccccc1)CN(Cc1ccccc1)CC3` belongs -39.2%; to `O=C(CCCCl)NC(=S)Nc1ccc(CN2CCOCC2)cc1`, -6.81%; to `Cc1cccc(OC(C)C(=O)N2CCc3ccccc3C2)c1` (stereo not drawn), -7.36%. The result for `Cc1cc2c(c(=O)o1)C(CCC1CCCCC1)C(C#N)=C(N)O2` (stereo not drawn) reads 3.96%; that for `O=C(C1CC(=O)N(c2ccc(F)cc2)C1)N1CCOCC1` (stereo not drawn), 1.27%; that for `O=C(O)C1c2ccccc2C(=O)N(Cc2ccc(F)cc2)C1c1ccncc1` (stereo not drawn), 11%. For `Cc1cccc(-n2ccnc2SCC(=O)N2CCCc3ccccc32)c1C`, the “hERG current change (%, negative = inhibition) at 10uM” value was -12.7%. For `O=C(C1=C(O)C(=O)N(Cc2ccco2)C1c1ccccc1)c1cccs1` (stereo not drawn), the “hERG current change (%, negative = inhibition) at 10uM” value is on record as 10.7%. To `CC(C)(C)NC(=O)COC(=O)CCC(=O)c1ccc(F)cc1` belongs 12%.

Regarding `CC(=O)OCCNc1cc(Sc2nc3ccccc3[nH]2)c2nonc2c1[N+](=O)[O-]`, the “hERG current change (%, negative = inhibition) at 10uM” value is -12.1%. To `COc1ccc(OC)c(-n2c(-c3cccc(S(=O)(=O)N(C)C)c3)n[nH]c2=S)c1` belongs 1.66%; to `CC(C)(Oc1ccc(Cl)cc1)C(=O)N1CCN(C(=O)c2ccco2)CC1`, -14.3%; to `O=c1[nH]c(NCc2ccccc2)nc2c1CCCC2`, 7.79%. `Cc1cc(N2CCN(C)CC2)nc2ccc(NC(=S)NCCCN3CCc4ccccc4C3)cc12`: the “hERG current change (%, negative = inhibition) at 10uM” value is -26.5%. To `CCCCC1C(=O)N(c2ccccc2)N(c2ccc(O)cc2)C1=O` (stereo not drawn) belongs -9%; to `CCC(C)NC(=O)CCNS(=O)(=O)c1ccc(Br)cc1` (stereo not drawn), -10.7%; to `C=CCN1C(=O)/C(=C/c2ccc(Br)s2)C(=O)NC1=S`, 6.73%. To `CCC(C)(C)c1ccc(OCCCC[n+]2ccccc2)c(C(C)(C)CC)c1.[Br-]` belongs -67.2%. The result for `S=C(Nc1ccc(Nc2ccccc2)cc1)Nc1ccccn1` reads 23.2%.

For `COc1ccccc1NS(=O)(=O)c1cccc(C(=O)N2CCN(C/C=C/c3ccccc3)CC2)c1`, the “hERG current change (%, negative = inhibition) at 10uM” value was -34.9%. As to `Cc1ccc(C(=O)NCC(=O)N2CCC(Cc3ccccc3)CC2)cc1`, the “hERG current change (%, negative = inhibition) at 10uM” value is recorded as -30.1%. To `COc1cc2ncnc(NCc3ccc(Cl)cc3)c2cc1OC` belongs -31.2%. To `COc1ccc(NC(=O)C2CCN(C(=O)c3ccc(OC)cc3)CC2)cc1` belongs -72.2%; to `COc1ccc(C(=O)Nc2cccc(OC)c2)cc1`, 27.5%. The result for `Cc1nnc(SCC(=O)NC2CCS(=O)(=O)C2)n1-c1ccccc1` (stereo not drawn) reads 5.15%; that for `Cc1cccc(Nc2ncnc3nc[nH]c23)c1C`, -12.5%. Regarding `COc1ccc(C2C=C(C)Nc3ncnn32)cc1` (stereo not drawn), the “hERG current change (%, negative = inhibition) at 10uM” value stood at 19.8%.

In the case of `CCOc1ccccc1OCCCC(=O)N(CC)CC(=O)Nc1ccc(NC(C)=O)cc1`, the “hERG current change (%, negative = inhibition) at 10uM” value is given as 10.1%. To `Cc1ccnc(SCC(=O)N2CCN(c3cccc(Cl)c3)CC2)n1` belongs -25.2%. With `Cc1cc(N2CCCC2=O)cc(C)c1CN1C(=O)c2ccccc2C1=O`, the “hERG current change (%, negative = inhibition) at 10uM” value is 19.1%. To `Cc1cccc(N2CCN(C(=O)c3ccncc3)CC2C)c1` (stereo not drawn) belongs 6.99%. The result for `N#C/C(=C\c1ccc(OCc2ccc(C(=O)O)cc2)cc1)C(=O)NCc1ccccc1` reads 10.3%; that for `COc1cccc2sc(NC(=O)c3ccc(S(=O)(=O)N4CCOCC4)cc3)nc12`, 7.21%.

Turning to `O=C1NC(=O)C(=Cc2ccc(Oc3ccc([N+](=O)[O-])cc3)cc2)C(=O)N1`, the “hERG current change (%, negative = inhibition) at 10uM” value was -25%. To `O=C(Cn1c(=O)c2cccn2c2ccccc21)Nc1ccc(F)cc1F` belongs -0.446%; to `CCOC(=O)c1cnn(-c2cc(Oc3cccc(C)c3)ncn2)c1N`, 10.6%. The result for `COC(=O)C(Cc1ccccc1)NCC(=O)Nc1cccc(Cl)c1C` (stereo not drawn) reads -8.26%; that for `CNc1c(NS(=O)(=O)c2ccc(Br)cc2)c(=O)oc2ccccc12`, -7.72%; that for `O=c1ccc2cc(S(=O)(=O)Nc3ccccc3F)ccc2o1`, 11.2%. The result for `Cc1ccc(C(=O)OCC2OC3OC(C)(C)OC3C2O)cc1` (stereo not drawn) reads 4.89%; that for `CCOC(=O)C1=C(Nc2cccc(Cl)c2)OCC1=O`, -14.8%. As to `CN(Cc1ccc(Cl)s1)C(=O)CNC(=O)CNC(=O)c1ccc(Cl)cc1Cl`, the “hERG current change (%, negative = inhibition) at 10uM” value is recorded as -56.8%.

`Cc1cc(NC(=O)COC(=O)c2cccc(S(=O)(=O)N(C)C3CCCCC3)c2)no1`: the “hERG current change (%, negative = inhibition) at 10uM” value is given as -32.8%. The result for `Cc1ccc(-n2c(N)c(C(=O)Nc3c(C)n(C)n(-c4ccccc4)c3=O)c3nc4ccccc4nc32)cc1C` reads 2.72%; that for `CC/C(O)=C1\C(=O)CCCC1=NCCc1c(C)[nH]c2ccc(C)cc12`, -14%; that for `COc1ccc(S(=O)(=O)NCCC(C)C)cc1OC`, 3.24%.

As to `Cc1cc(Cl)nc(-n2nc(C)cc2C)n1`, the “hERG current change (%, negative = inhibition) at 10uM” value turned out to be 2.6%. The result for `O=C(NCCCN1CCOCC1)c1ccc([N+](=O)[O-])cc1[N+](=O)[O-]` reads 10.5%; that for `O=C(O)c1cccc(N=NN2CCOCC2)c1`, 10.8%. The result for `COc1ccc(Nc2nc(N)nc(C(F)(F)F)n2)c(OC)c1` reads 1.11%.

As for `COc1cc2c(cc1OC)C(C)=NC1(CCCCC1)C2.O=C(O)c1ccccc1O`, the “hERG current change (%, negative = inhibition) at 10uM” value was -15.6%. Consider `Cc1cccc(C)c1NC(=O)CN(C)C(=O)Cc1cccc(C(F)(F)F)c1`, for which the “hERG current change (%, negative = inhibition) at 10uM” value stood at 20.9%. The result for `CC(C)(Oc1cccc2ccccc12)C(=O)O` reads -1.09%. The result for `COc1cc(C2/C(=C(/O)c3ccc(F)cc3)C(=O)C(=O)N2CCCC(=O)O)ccc1O` (stereo not drawn) reads 8.64%.

The values are drawn from paper PMC4336329 (PLoS ONE, 2015).
